Measurements taken from PubChem BioAssay AID1569 (National Center for Advancing Translational Sciences (NCATS), 2009).
Inconclusive results, whose numbers are uncertain, are shown with a selection of clear calls. Potencies of inconclusive entries are doubtful fits and often do not repeat. Activity calls are given as the source filed them. Calls follow the shape of the dose curve; as a rule, active = well fitted inhibition curve with a large enough effect; inconclusive = small, poorly fitted or top-dose-only effect, or effect the other way, or another doubt; inactive = no such curve, though single readings can be large or run the other way.

assay: Confirmation Concentration-Response Assay for lipid storage modulators; details: Drosophila S3 cells, lipid droplet BODIPY/CellTracker ratio, 18-24 h; series mostly up to 46.1 µM; also: nearly all actives have a fitted effect of over 80% in size
How it was run: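 Cells at 5,000/well received compound as a titration plus oleic acid (added as 400 uM solution) and were incubated 18–24 h at 24 °C. BODIPY 493/503 lipid signal and CellTracker Red cell count were read by 488-nm laser-scanning cytometry. Activity was normalised to 20 uM Triacsin C.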
Potency is read from the fitted curve at half-maximal effect; tags tell the direction and shape of the fitted curve.

SMILES | Potency
Cc1ccccc1-c1nc(CS(=O)(=O)CC(=O)NCc2ccccc2)c(C)o1 | inconclusive: 3.53 µM [activator, full curve]
O=C1C(Cl)=C(Nc2ccc3cn[nH]c3c2)C(=O)c2ccccc21 | inconclusive: 17.3 µM [falling, single point]
O=C(NC(=S)Nc1ccccc1N1CCOCC1)c1cccc([N+](=O)[O-])c1 | inconclusive: 3.53 µM [activator, partial curve, poor fit]
COc1ccc(CCNC(=O)C(=O)Nc2ccc3nc4n(c(=O)c3c2)CCCCC4)cc1OC | inconclusive: 4.99 µM [activator, partial curve, poor fit]
COc1ccc(CCNC(=O)CC2SC(N)=NC2=O)cc1OC (stereo not given) | inactive
Cc1ccc(C)c2[nH]c(=O)c(CCNC(=O)c3ccc4c(c3)OCO4)cc12 | inconclusive: 0.0628 µM [activator, full curve]
O=C(C1CCN(c2ncnc3c2sc2cccc(F)c23)CC1)N1CCOCC1 | inconclusive: 1.12 µM [activator, partial curve]
CS(=O)(=O)N1CCN(c2ccccc2NC(=O)c2ccc(-c3ccc(Cl)cc3Cl)o2)CC1 | inconclusive: 7.91 µM [activator, full curve]
COc1ccc(OC)c(NC(=O)CSc2nnnn2-c2ccc3c(c2)OCO3)c1 | inconclusive: 1.58 µM [activator, full curve]
CCN(CC)C(=O)c1sc2nc(N3CCOCC3)c3c(c2c1N)CCCC3 | inconclusive: 0.705 µM [activator, full curve]
